Results as given in PubChem BioAssay AID504466 (National Center for Advancing Translational Sciences (NCATS), 2011).
Out of some 330,000 compounds screened, about 4,200 (1.3%) were called active. Inconclusive results, whose numbers are uncertain, are shown with a selection of clear calls. The call rests on the fitted dose curve; in most records, active means well fitted activation curve with a large enough effect; inconclusive means small, poorly fitted or top-dose-only effect; inactive means no such curve, though single readings can be large or run the other way. Where the call is inconclusive, the potency comes from a doubtful curve fit.

assay: qHTS screen for small molecules that induce genotoxicity in human embryonic kidney (HEK293T) cells expressing luciferase-tagged ELG1; conditions: HEK293T ELG1-luciferase reporter, luminescence, 16 h; series mostly up to 46 µM; activity change, positive = activation: at the top concentration; further: nearly all actives have a fitted effect of over 60% in size; on activity change, positive = activation: % of control where 0% means no effect
Summary of the method: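 After overnight (16 hr) compound treatment at 37 °C, ELG1-luciferase HEK293T cells were lysed with ONE-Glo; luminescence quantified 30 min later at room temperature.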
Potency means the concentration at half of the fitted maximal effect; tags describe the fitted curve by direction and shape.

| Structure (SMILES) | Potency | activity change, positive = activation |
| --- | --- | --- |
| O=C(Nc1ccc2[nH]ncc2c1)c1ccccc1 | inconclusive: 9.2 µM [activator, partial curve, poor fit] | – |
| COc1ccccc1C(=O)NNC(=O)c1ccc(C)cc1 | inconclusive: 16.4 µM [activator, partial curve, poor fit] | – |
| Cc1c(NC(=O)C(C)OC(=O)/C=C/c2ccccc2)c(=O)n(-c2ccccc2)n1C (stereo not drawn) | – | inactive: -2.91% |
| N#Cc1c(Cl)nc(SCc2ccccc2)nc1-c1ccccc1 | – | inactive: 0.415% |
| CCCOc1ccc(CNC(=O)C2CCN(c3nnc(N4CCCC4=O)s3)CC2)cc1 | – | inactive: 0.473% |
| C=CCN(CC=C)C(=O)c1cc2ccccc2c(=O)o1 | – | inactive: 1.67% |
| CC(C)C(=O)Nc1cccc(C(=O)Nc2nnc(C(C)(C)C)s2)c1 | – | inactive: 2.03% |
| CC(C)Oc1ccc(OCCn2c(S(=O)(=O)O)nc3c(N)ncnc32)cc1 | – | inactive: 2.64% |
| CCc1ccc(C(=O)CN2CCSC2=N)cc1 | inconclusive: 4.11 µM [activator, partial curve] | – |
| O=C(Cc1ccccc1)NC(=S)Nc1ccc2oc(-c3ccccc3)nc2c1 | inconclusive: 32.6 µM [activator, partial curve, poor fit] | – |
| c1coc(-c2nnc(-c3ccc4c(c3)OCO4)o2)c1 | active: 8.2 µM | – |
| C[C@H](NC(=O)c1ccccc1)C(=O)N1CCN(Cc2ccc3c(c2)OCO3)CC1 | – | inactive: 0.0001% |
| O=C1CC(c2ccccc2)Oc2cc(O)cc(O)c21 (stereo not drawn) | inconclusive: 25.9 µM [activator, partial curve, poor fit] | – |
| Fc1ccc(Cn2nnc(-c3ccc(CN4CCOCC4)cc3)n2)cc1 | inconclusive: 23.1 µM [activator, partial curve, poor fit] | – |
| O=C(O)COc1ccc(/C=N/Nc2nc(Nc3ccccc3)nc(N3CCCCC3)n2)cc1 | – | inactive: -1.85% |
| CSc1nsc(N/N=C/c2ccc3c(c2)OCO3)c1C#N | inconclusive: 3.26 µM [activator, full curve, poor fit] | – |
| O=C(Cc1csc(Nc2nc(=S)[nH]c3ccccc23)n1)NCCCN1CCN(c2cccc(Cl)c2)CC1 | inconclusive: 29.1 µM [activator, partial curve, poor fit] | – |
| Cc1cc(C(=O)NNC(=S)Nc2ccccc2C)cs1 | inconclusive: 10.3 µM [activator, partial curve, poor fit] | – |
| CC(=O)N1CCN(C(=O)c2ccc(-c3ccccc3Cl)o2)CC1 | inconclusive: 23.1 µM [activator, partial curve, poor fit] | – |
| CC(C)(C)c1ccc(C(=O)NCCOc2ccccc2)cc1 | active: 0.73 µM | – |
| CSc1nc2ccc(NC(=O)c3cc4ccccc4o3)cc2s1 | inconclusive: 4.11 µM [activator, full curve] | – |
| O=C(NCc1ccccn1)c1cc(-c2ccccc2Cl)on1 | inconclusive: 16.4 µM [activator, partial curve, poor fit] | – |
| CCC(=O)Nc1ccc(-c2nnc(SCc3ccc(C(=O)Nc4nccs4)cc3)n2CC)cc1 | – | inactive: -1.57% |
| COc1ccc(-c2ccc(-c3noc(-c4ccccc4)n3)c(OC)n2)cc1 | inconclusive: 29.1 µM [activator, partial curve, poor fit] | – |
| Cc1nc2ccc(C(=O)N/N=C/c3ccccc3O)cc2[nH]1 | inconclusive: 23.1 µM [activator, single point] | – |
| CCC(CC)C1=NN2C(=N)/C(=C\c3cc(C)n(-c4cccc(C)c4)c3C)C(=O)N=C2S1 | – | inactive: -0.0799% |

| Structure (SMILES) | Potency | activity change, positive = activation |
| --- | --- | --- |
| CC(C)(C)C(=O)NC(=S)NNC(=O)c1sc2ccccc2c1Cl | inconclusive: 1.3 µM [activator, partial curve, poor fit] | – |
| Cc1ccc(NC(=O)c2cnccn2)cc1 | inconclusive: 11.6 µM [activator, partial curve] | – |
| CN(c1ccc(C(=O)N/N=C/c2cccc([N+](=O)[O-])c2)cc1)S(=O)(=O)c1ccccc1 | – | inactive: -24.9% |
| C=CCNC(=S)N/N=C(\C)c1cc(OC)c(OC)c(OC)c1 | inconclusive: 20.6 µM [activator, partial curve, poor fit] | – |
| CC(=Nc1ccc(C)cc1)c1sc2ccccc2c1O | active: 0.731 µM | – |
| COC(=O)c1ccc(NC(=O)CSc2nnc(COc3ccc4c(c3)CCCC4)o2)cc1 | – | inactive: -1.21% |
| COC(=O)c1ccc(CNC(=O)C2CCC(=O)N(CCN3CCOCC3)C2)cc1 (stereo not drawn) | – | inactive: 8.01% |
| CCCCCCCNC1=CC(=O)CC(c2ccccc2)C1 (stereo not drawn) | – | inactive: -0.349% |
| CC(=O)c1c(C)[nH]c(C(=O)Nc2cccc(C)n2)c1C | active: 1.64 µM | – |
| COc1cc(OC)cc(-c2cc3ccc(F)cc3cn2)c1 | inconclusive: 8.2 µM [activator, partial curve] | – |
| COCCNC(=O)c1ccc(-n2c(SCc3cccnc3)nc3ccccc3c2=O)cc1 | inconclusive: 18.3 µM [activator, partial curve, poor fit] | – |
| NS(=O)(=O)c1ccc(NC(=O)c2ccc3c(c2)OCO3)cc1 | – | inactive: 3.75% |
| O=C(NCC1CCCO1)c1cc(-c2ccccc2F)no1 (stereo not drawn) | inconclusive: 20.6 µM [activator, single point] | – |
| Cc1cc(CN(C)C(=O)CCc2nnc(Cc3cccc(C(F)(F)F)c3)o2)on1 | inconclusive: 20.6 µM [activator, partial curve, poor fit] | – |
| CC(C)=CCN1CCN(Cc2cnc(N3CCCC3)s2)CC1CCO (stereo not drawn) | – | inactive: -2.38% |
| O=C(Nc1nc2ccc(Cl)cc2s1)[C@@H]1CCCN1C(=O)c1cccs1 | inconclusive: 20.6 µM [activator, single point] | – |
| Clc1ccc(-c2nnc(CNC3CC3)o2)cc1 | – | inactive: 7.82% |
| COc1ccc(C(=O)O/N=C(\N)c2ccccc2)cc1OC | active: 20.6 µM | – |
| O=C(c1ccc2c3n(nc2c1)-c1ccccc1CO3)N1CCCCC1 | inconclusive: 2.06 µM [activator, full curve] | – |
| Cc1oc2cc3c(C(=O)N4CCCCC4)c(C)oc3cc2c1C(=O)N1CCCCC1 | inconclusive: 1.64 µM [activator, full curve] | – |
| Cc1ccc(S(=O)(=O)N2CCCCC2)cc1C(=O)NCCN1CCOCC1 | – | inactive: -0.16% |
| O=S(=O)(Nc1cccc(-c2ccc(N3CCCCCC3)nn2)c1)c1ccc(F)cc1 | inconclusive: 13 µM [activator, partial curve] | – |
| O=C(NCCCN1CCCC1=O)C(=O)NCC1OCCCN1S(=O)(=O)c1cc(F)ccc1F (stereo not drawn) | – | inactive: 2.5% |
| COc1cc2c(cc1NC(=O)c1ccccc1F)CCCC2 | inconclusive: 18.4 µM [activator, partial curve, poor fit] | – |
| CCC1COCCS(=O)(=O)N1Cc1cccc(C(F)(F)F)c1 (stereo not drawn) | – | inactive: -0.605% |
| O=C(Nc1nc2ccsc2c(=O)s1)C1CCC1 | inconclusive: 23.1 µM [activator, partial curve, poor fit] | – |

| Structure (SMILES) | Potency | activity change, positive = activation |
| --- | --- | --- |
| C/C(=N\Nc1ccc(C(=O)O)cc1)c1nc2ccccc2n1C | inconclusive: 11.6 µM [activator, partial curve] | – |
| O=Cc1cn(-c2ccccc2)nc1-c1ccc(F)cc1 | – | inactive: -5.85% |
| O=C(COC(=O)Cc1ccccc1[N+](=O)[O-])Nc1nnc(-c2ccccc2)o1 | – | inactive: 2.02% |
| COc1ccccc1C(=O)Nc1ccc(NC(=O)c2ccco2)cn1 | inconclusive: 4.47 µM [activator, single point] | – |
| S=C(NCc1ccccn1)Nc1ccc(Br)cc1Cl | inconclusive: 23.1 µM [activator, partial curve, poor fit] | – |
| CCCc1cc(C(=O)NCc2ccccc2)no1 | active: 23.1 µM | – |
| COc1cccc(-c2nc(=S)c3c(o2)CCCC3)c1 | inconclusive: 10.3 µM [activator, partial curve] | – |
| C(=N\c1nc2ccccc2n1CCN1CCCCC1)/c1cccs1 | – | inactive: 3.59% |
| CC(C#N)OC(=O)c1cccnc1SCC(=O)Nc1ccc2c(c1)OCO2 (stereo not drawn) | inconclusive: 13 µM [activator, partial curve, poor fit] | – |
| CCOC(=O)C1CCN(S(=O)(=O)c2ccc(NC(=O)c3ccco3)cc2)CC1 | – | inactive: -13.1% |
| Cc1nn2cc(-c3ccc(Cl)cc3)nc2s1 | active: 0.517 µM | – |
| COCCCNC(=S)NNC(=O)c1ccc(C(C)(C)C)cc1 | – | inactive: -4.21% |
| CCOC(=O)/C(N=Nc1ccc2c(c1)OCO2)=C(\C)O | inconclusive: 13 µM [activator, partial curve] | – |
| c1ccc2c(Nc3nc4c(s3)CCCC4)cccc2c1 | inconclusive: 18.4 µM [activator, partial curve, poor fit] | – |
| Cc1ccc(NCc2nc3ccccc3n2C)cc1C | inconclusive: 9.2 µM [activator, partial curve] | – |
| Cc1cc(=O)n2[nH]c(-c3ccc(F)cc3)nc2n1 | inconclusive: 23.1 µM [activator, single point] | – |
| CCCN1C=CC(=C/C=C(\C#N)C(=O)OCC)C=C1 | inconclusive: 9.2 µM [activator, partial curve] | – |
| Clc1ccc2c(c1)c1cc(Cl)ccc1n2CN1CCOCC1 | – | inactive: -1.5% |
| Clc1nc2ccccc2cc1-c1nnn(-c2ccccc2)n1 | active: 16.4 µM | – |
| O=C(Nc1ccc2c(c1)OCCO2)c1ccco1 | active: 3.66 µM | – |
| O=C(c1cc(-c2cccc(Cl)c2)on1)N1CCCC1 | active: 18.3 µM | – |
| CCOC(=O)c1[nH]cnc1N=Nc1c(O)ccc2ccccc12 | inconclusive: 16.4 µM [activator, partial curve] | – |
| CC1CC(C)CN(S(=O)(=O)c2ccc(C(=O)Nc3nnc(-c4cccs4)o3)cc2)C1 (stereo not drawn) | – | inactive: -15.8% |
| CCC(=O)Nc1ccc2oc(-c3cccc(C)c3)nc2c1 | active: 0.411 µM | – |
| COC(=O)CSc1nnc(SCc2ccccc2)s1 | – | inactive: 1.65% |
| COC(=O)c1ccc(NC(=O)CSc2ccccc2)cc1 | inconclusive: 25.9 µM [activator, partial curve, poor fit] | – |
